# Data published in PMC9911399, “Two distinct binding modes provide the RNA-binding protein RbFox with extraordinary sequence specificity”.
# Substitutions are numbered along the chain they refer to; changes in the protein carry UniProt numbers. The list shows a part of the results.
# T1: RBFOX1 RRM (Homo sapiens, UniProt Q9NWB1 109-208)
# T1 sequence: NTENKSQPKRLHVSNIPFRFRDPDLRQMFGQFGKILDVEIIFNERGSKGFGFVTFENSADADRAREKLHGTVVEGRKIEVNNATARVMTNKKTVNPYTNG
# B1: CACUCUG (DNA:RNA)
# RNA: GGGAGACCGGAAUUCAGAUUGUCCCACUCUGUUAAAUCCCGUCGUAGCCACCA
# DNA 1: CAATCTGAATTCCGGTCTCCC
# DNA 2: TGGTGGCTACGACGGGATT
# B2: UUCUAAA (DNA:RNA)
# RNA: B1 RNA with C25U, A26U, C29A, U30A, G31A
# DNA 1: CAATCTGAATTCCGGTCTCCC
# DNA 2: TGGTGGCTACGACGGGATT
# B3: GAACGUG (DNA:RNA)
# RNA: B1 RNA with C25G, C27A, U28C, C29G
# DNA 1: CAATCTGAATTCCGGTCTCCC
# DNA 2: TGGTGGCTACGACGGGATT
# B4: CGGGCGC (DNA:RNA)
# RNA: B1 RNA with A26G, C27G, U28G, U30G, G31C
# DNA 1: CAATCTGAATTCCGGTCTCCC
# DNA 2: TGGTGGCTACGACGGGATT
# B5: AACCUUU (DNA:RNA)
# RNA: B1 RNA with C25A, U28C, C29U, G31U
# DNA 1: CAATCTGAATTCCGGTCTCCC
# DNA 2: TGGTGGCTACGACGGGATT
# B6: CCGAAGC (DNA:RNA)
# RNA: B1 RNA with A26C, C27G, U28A, C29A, U30G, G31C
# DNA 1: CAATCTGAATTCCGGTCTCCC
# DNA 2: TGGTGGCTACGACGGGATT
# B7: CGGUAUG (DNA:RNA)
# RNA: B1 RNA with A26G, C27G, C29A
# DNA 1: CAATCTGAATTCCGGTCTCCC
# DNA 2: TGGTGGCTACGACGGGATT
# B8: AUUUAGG (DNA:RNA)
# RNA: B1 RNA with C25A, A26U, C27U, C29A, U30G
# DNA 1: CAATCTGAATTCCGGTCTCCC
# DNA 2: TGGTGGCTACGACGGGATT
# B9: CAAGCGC (DNA:RNA)
# RNA: B1 RNA with C27A, U28G, U30G, G31C
# DNA 1: CAATCTGAATTCCGGTCTCCC
# DNA 2: TGGTGGCTACGACGGGATT
# B10: UCUGUGU (DNA:RNA)
# RNA: GGGAGACCGGAAUUCAGAUUGUCCUCUGUGUUUAAAUCCCGUCGUAGCCACCA
# DNA 1: CAATCTGAATTCCGGTCTCCC
# DNA 2: TGGTGGCTACGACGGGATT
# B11: AUGGGAC (DNA:RNA)
# RNA: B10 RNA with U25A, C26U, U27G, U29G, G30A, U31C
# DNA 1: CAATCTGAATTCCGGTCTCCC
# DNA 2: TGGTGGCTACGACGGGATT
# B12: CUACUGU (DNA:RNA)
# RNA: B10 RNA with U25C, C26U, U27A, G28C
# DNA 1: CAATCTGAATTCCGGTCTCCC
# DNA 2: TGGTGGCTACGACGGGATT
# B13: ACGGAAC (DNA:RNA)
# RNA: B10 RNA with U25A, U27G, U29A, G30A, U31C
# DNA 1: CAATCTGAATTCCGGTCTCCC
# DNA 2: TGGTGGCTACGACGGGATT
# B14: UUCGCAC (DNA:RNA)
# RNA: B1 RNA with C25U, A26U, U28G, U30A, G31C
# DNA 1: CAATCTGAATTCCGGTCTCCC
# DNA 2: TGGTGGCTACGACGGGATT
# B15: UGCAUAA (DNA:RNA)
# RNA: B10 RNA with C26G, U27C, G28A, G30A, U31A
# DNA 1: CAATCTGAATTCCGGTCTCCC
# DNA 2: TGGTGGCTACGACGGGATT
# B16: UGCUGUC (DNA:RNA)
# RNA: B1 RNA with C25U, A26G, C29G, G31C
# DNA 1: CAATCTGAATTCCGGTCTCCC
# DNA 2: TGGTGGCTACGACGGGATT
# B17: AAAAGUA (DNA:RNA)
# RNA: B1 RNA with C25A, C27A, U28A, C29G, G31A
# DNA 1: CAATCTGAATTCCGGTCTCCC
# DNA 2: TGGTGGCTACGACGGGATT
# B18: UAGCGGC (DNA:RNA)
# RNA: B10 RNA with C26A, U27G, G28C, U29G, U31C
# DNA 1: CAATCTGAATTCCGGTCTCCC
# DNA 2: TGGTGGCTACGACGGGATT
# B19: GUUUUGA (DNA:RNA)
# RNA: B10 RNA with U25G, C26U, G28U, U31A
# DNA 1: CAATCTGAATTCCGGTCTCCC
# DNA 2: TGGTGGCTACGACGGGATT
# B20: GUUAAGC (DNA:RNA)
# RNA: B10 RNA with U25G, C26U, G28A, U29A, U31C
# DNA 1: CAATCTGAATTCCGGTCTCCC
# DNA 2: TGGTGGCTACGACGGGATT
# B21: UUAACUA (DNA:RNA)
# RNA: B1 RNA with C25U, A26U, C27A, U28A, G31A
# DNA 1: CAATCTGAATTCCGGTCTCCC
# DNA 2: TGGTGGCTACGACGGGATT
# B22: AGAGUCC (DNA:RNA)
# RNA: B10 RNA with U25A, C26G, U27A, G30C, U31C
# DNA 1: CAATCTGAATTCCGGTCTCCC
# DNA 2: TGGTGGCTACGACGGGATT
# B23: AGCGACU (DNA:RNA)
# RNA: B10 RNA with U25A, C26G, U27C, U29A, G30C
# DNA 1: CAATCTGAATTCCGGTCTCCC
# DNA 2: TGGTGGCTACGACGGGATT
# B24: AUCCUAC (DNA:RNA)
# RNA: B1 RNA with C25A, A26U, U28C, C29U, U30A, G31C
# DNA 1: CAATCTGAATTCCGGTCTCCC
# DNA 2: TGGTGGCTACGACGGGATT
# B25: GCGACAA (DNA:RNA)
# RNA: B1 RNA with C25G, A26C, C27G, U28A, U30A, G31A
# DNA 1: CAATCTGAATTCCGGTCTCCC
# DNA 2: TGGTGGCTACGACGGGATT
# B26: UUUUGCU (DNA:RNA)
# RNA: B10 RNA with C26U, G28U, U29G, G30C
# DNA 1: CAATCTGAATTCCGGTCTCCC
# DNA 2: TGGTGGCTACGACGGGATT
# B27: UACGCGC (DNA:RNA)
# RNA: B1 RNA with C25U, U28G, U30G, G31C
# DNA 1: CAATCTGAATTCCGGTCTCCC
# DNA 2: TGGTGGCTACGACGGGATT
# B28: CGUGGCA (DNA:RNA)
# RNA: B10 RNA with U25C, C26G, U29G, G30C, U31A
# DNA 1: CAATCTGAATTCCGGTCTCCC
# DNA 2: TGGTGGCTACGACGGGATT
# B29: AAGUGGG (DNA:RNA)
# RNA: B1 RNA with C25A, C27G, C29G, U30G
# DNA 1: CAATCTGAATTCCGGTCTCCC
# DNA 2: TGGTGGCTACGACGGGATT
# B30: UAAACCU (DNA:RNA)
# RNA: B1 RNA with C25U, C27A, U28A, U30C, G31U
# DNA 1: CAATCTGAATTCCGGTCTCCC
# DNA 2: TGGTGGCTACGACGGGATT
# B31: GCGUUGU (DNA:RNA)
# RNA: B10 RNA with U25G, U27G, G28U
# DNA 1: CAATCTGAATTCCGGTCTCCC
# DNA 2: TGGTGGCTACGACGGGATT
# Biological target: T1, RBFOX1 RRM
# Assay: EMSA; HiTS-Eq, 1 nM pool, 10 min; buffer printed only for the single-RNA assays: 10 mM Tris pH 7.5, 150 mM NaCl, 3.4 mM EDTA, 0.001% NP-40, 30 C
# Conditions: tags: His6 N-terminal (pET28a); label: 5' 32P
# Outline: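 These values rest on relative association constants, computed from read-count changes of each RNA species versus the control reaction and normalised to the cognate motif. Reads came from free RNA recovered by 8% native PAGE after purified RbFox RRM (wild type or mutant) at increasing concentrations was equilibrated for 10 min in 50 µL with 1 nM of a 5′-radiolabelled pool with 7 randomized nucleotides and DNA-annealed flanks.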
row,Binder,binding signal
1,B1,0.00834 KA relative to UGCAUGU
2,B2,0.00448 KA relative to UGCAUGU
3,B3,0.0225 KA relative to UGCAUGU
4,B4,0.0268 KA relative to UGCAUGU
5,B5,0.000589 KA relative to UGCAUGU
6,B6,0.0054 KA relative to UGCAUGU
7,B7,0.0195 KA relative to UGCAUGU
8,B8,0.00851 KA relative to UGCAUGU
9,B9,0.00567 KA relative to UGCAUGU
10,B10,0.0252 KA relative to UGCAUGU
11,B11,0.0085 KA relative to UGCAUGU
12,B12,0.0119 KA relative to UGCAUGU
13,B13,0.00946 KA relative to UGCAUGU
14,B14,0.019 KA relative to UGCAUGU
15,B15,0.00891 KA relative to UGCAUGU
16,B16,0.0229 KA relative to UGCAUGU

row,Binder,binding signal
1,B17,0.00159 KA relative to UGCAUGU
2,B18,0.00814 KA relative to UGCAUGU
3,B19,0.0261 KA relative to UGCAUGU
4,B20,0.0139 KA relative to UGCAUGU
5,B21,0.00177 KA relative to UGCAUGU
6,B22,0.0119 KA relative to UGCAUGU
7,B23,0.00758 KA relative to UGCAUGU
8,B24,0.00489 KA relative to UGCAUGU
9,B25,0.00756 KA relative to UGCAUGU
10,B26,0.0233 KA relative to UGCAUGU
11,B27,0.0142 KA relative to UGCAUGU
12,B28,0.0154 KA relative to UGCAUGU
13,B29,0.00428 KA relative to UGCAUGU
14,B30,0.00421 KA relative to UGCAUGU
15,B31,0.0204 KA relative to UGCAUGU
